According to publication PMC4336329 (PLoS ONE, 2015):
The whole screen tested about 310,000 compounds, of which about 14,000 (4.5%) showed an effect of 50% or more. The effect is printed as a negative number. The list shows a part of the results.

target: human ether-à-go-go-related gene (hERG) potassium channel (human, UniProt Q12809); assay: primary screen, population patch clamp on CHO cells stably expressing hERG
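Also: peak tail current of the secondary pulse compared with the same well before compound.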

Chain of human ether-à-go-go-related gene (hERG) potassium channel (Q12809 whole entry, looked up): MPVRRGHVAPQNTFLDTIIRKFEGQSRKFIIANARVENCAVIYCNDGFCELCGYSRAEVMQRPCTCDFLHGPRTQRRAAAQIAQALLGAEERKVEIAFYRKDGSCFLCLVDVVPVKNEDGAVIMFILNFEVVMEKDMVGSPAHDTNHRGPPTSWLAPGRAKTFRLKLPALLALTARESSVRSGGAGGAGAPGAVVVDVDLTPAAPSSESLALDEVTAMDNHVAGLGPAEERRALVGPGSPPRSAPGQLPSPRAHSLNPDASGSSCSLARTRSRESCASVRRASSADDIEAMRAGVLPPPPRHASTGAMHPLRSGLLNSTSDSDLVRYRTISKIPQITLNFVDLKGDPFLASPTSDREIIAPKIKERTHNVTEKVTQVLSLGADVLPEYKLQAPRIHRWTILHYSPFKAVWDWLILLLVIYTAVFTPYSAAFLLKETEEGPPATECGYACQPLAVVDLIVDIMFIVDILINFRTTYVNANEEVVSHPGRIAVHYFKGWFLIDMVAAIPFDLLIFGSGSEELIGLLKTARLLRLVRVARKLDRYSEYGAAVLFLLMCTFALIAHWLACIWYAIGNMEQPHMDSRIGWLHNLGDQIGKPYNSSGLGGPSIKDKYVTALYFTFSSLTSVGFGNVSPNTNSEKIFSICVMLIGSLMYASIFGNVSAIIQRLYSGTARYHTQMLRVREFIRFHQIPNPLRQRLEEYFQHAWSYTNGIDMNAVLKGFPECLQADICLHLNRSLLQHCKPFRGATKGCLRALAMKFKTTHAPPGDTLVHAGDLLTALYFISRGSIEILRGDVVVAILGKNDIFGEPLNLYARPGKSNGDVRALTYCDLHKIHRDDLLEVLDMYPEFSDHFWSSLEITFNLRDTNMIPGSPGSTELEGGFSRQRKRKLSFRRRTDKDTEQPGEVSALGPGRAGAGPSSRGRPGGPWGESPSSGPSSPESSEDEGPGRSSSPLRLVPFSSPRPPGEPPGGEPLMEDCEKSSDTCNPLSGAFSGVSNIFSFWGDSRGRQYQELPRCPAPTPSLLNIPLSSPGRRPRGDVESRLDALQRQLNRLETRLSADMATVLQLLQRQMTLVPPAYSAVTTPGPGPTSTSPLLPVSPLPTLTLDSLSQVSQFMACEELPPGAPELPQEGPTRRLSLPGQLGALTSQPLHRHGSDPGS

Row | Compound | hERG current change (%, negative = inhibition) at 10uM [%]
1 | N#Cc1nc(COc2ccc(Cl)cc2)oc1N1CCCC1 | -38.9
2 | COc1cccc(NC(=O)N2CCCC(C(=O)NCc3ccc(F)cc3)C2)c1 (stereo not shown) | -24.1
3 | CC(Oc1ccc(C(=O)NCCc2ccccc2)cc1)C(=O)O (stereo not shown) | 4.88
4 | NS(=O)(=O)c1ccc(NC(=S)NCc2ccc(Cl)cc2)cc1 | 14.1
5 | Cc1ccccc1NC(=O)c1csc2c1CCCC2 | -20.9
6 | COc1ccc(CC(=O)O/N=C(\N)c2ccc(Br)cc2)cc1OC | 11.7
7 | CN1C(=O)/C(=C/C=C2/CCCN2C)N(C)C1=S | 8.63
8 | Cc1ccc(CNC(=O)C2(c3cccs3)CCOCC2)cc1 | -1.07
9 | O=S(=O)(Nc1ccc2ccccc2n1)c1ccccc1Cl | 7.96
10 | O=c1c2ccccc2nc2sc(Nc3ccc(F)cc3)nn12 | 1.78
11 | CSc1ccc(-c2nc(CSCC(=O)NC3CC3)c(C)o2)cc1 | -16.8
12 | N=c1c2c(ncn1CCCO)Oc1ccc3ccccc3c1C2c1ccccc1 (stereo not shown) | -53.6
13 | CCCCNS(=O)(=O)c1ccc(NC(=O)c2c(-c3ccccc3Cl)noc2C)cc1 | 4.28
14 | Cc1cc(C(=O)N/N=C/c2ccc(N(C)C)cc2)c2ccccc2n1 | 1.4
15 | COc1ccc(S(=O)(=O)N2CCOC2CNC(=O)C(=O)NCCc2ccccc2)cc1C (stereo not shown) | -23.4
16 | Cc1ccc(OCc2cc(C(=O)N3CCC(Oc4cccnc4)CC3)no2)cc1C | -56.7
17 | O=C(O)COc1ccccc1/C=N/NC(=O)CSc1nc2ccccc2c(=O)n1-c1ccccc1 | -0.123
18 | CCCS(=O)(=O)N1CCC(C(=O)NCc2ccc3c(c2)OCO3)CC1 | -9.83
19 | CC1(C)CC(=O)C2=C(C1)c1c(ccc3ccccc13)NC2c1ccc(OCC(=O)O)cc1 (stereo not shown) | 9.19
20 | O=C(/C=C/c1ccccc1)NCCSc1ccc(Cl)cc1 | 12.9
21 | COc1cc(SC#N)ccc1N=Cc1c(C)[nH]n(-c2ccc(C)cc2)c1=O | -1.36
22 | COc1cccc(NC(=O)CSCc2cc(=O)n3ccsc3n2)c1 | 15.2

Row | Compound | hERG current change (%, negative = inhibition) at 10uM [%]
23 | O=C(Nc1ccc(-c2cscn2)cc1)C1CCCN(Cc2ccc(CO)o2)C1 (stereo not shown) | 16.6
24 | COc1ccc(-n2[nH]c(C)cc2=O)cc1 | 28.2
25 | COc1ccc2cc(C(=O)C3CCCN(Cc4cnc(N5CCOCC5)s4)C3)ccc2c1 (stereo not shown) | 14.6
26 | C/C(=N\NC(=O)c1ccccc1N)c1ccc(NC(=O)Cc2ccccc2)cc1 | 12.6
27 | CC1=C2C(=O)C3C(CC=C4CC(O)CCC43C)C2CCC12OC1CC(C)CNC1C2C (stereo not shown) | 26.8
28 | CN1C(=O)c2ccc(NC(=O)C3CCCCC3)cc2C1=O | -10.8
29 | CC(O)Cc1nsc(NC(=O)c2ccc(Br)o2)n1 (stereo not shown) | -19.9
30 | COc1cccc(NC(=O)CSc2nnc(-c3ccoc3C)n2-c2ccccc2)c1 | -85.7
31 | Cc1oc(-c2ccccc2F)nc1CS(=O)(=O)CC(=O)N1CCCCCC1 | 0.289
32 | COCCN1C2=C(C(=O)CC(C)(C)C2)C(c2ccc(O)c(OC)c2)C2=C1CC(C)(C)CC2=O | -17.9
33 | Cl.Cn1c(=N)n(CC(O)c2cccc3ccccc23)c2ccccc21 (stereo not shown) | -67
34 | Cc1ccc(NC(=O)C(OC(=O)c2ccc(O)cc2)c2ccccc2)cc1Cl (stereo not shown) | -6.49
35 | O=C(O)/C=C/C(=O)NC1CCC(CC2CCC(NC(=O)/C=C/C(=O)O)CC2)CC1 (stereo not shown) | 32
36 | Clc1cnc(N/N=C/c2cccs2)c(Cl)c1 | -0.833
37 | COc1ccccc1CCC(=O)NCCCn1ccc2ccccc21 | 21.4
38 | O=C(CCc1ccccc1)Nc1ccncc1 | -56.8
39 | COc1cccc(-c2nc(CS(=O)CC(=O)NC(C)CCc3ccccc3)c(C)o2)c1 (stereo not shown) | -8.54
40 | Cc1cc(=O)[nH]c(N)n1 | 27.6
41 | O=C(NCc1ccccc1)c1c[nH]c2ccc(S(=O)(=O)Nc3ccc4c(c3)OCCO4)cc2c1=O | 6.01
42 | CC(=O)c1c(C)n(-c2ccc(N(C)C)cc2)c2ccc(OCC(N)=O)cc12 | 3.73
43 | O=C1C2CC=CCC2C(=O)N1Cc1nnc(-c2ccc(Cl)cc2)o1 (stereo not shown) | -17.9
44 | Cc1[nH]n(-c2ccc([N+](=O)[O-])cc2)c(=O)c1C=NCCc1ccc(S(N)(=O)=O)cc1 | 10.7

Row | Compound | hERG current change (%, negative = inhibition) at 10uM [%]
45 | CN=C1S/C(=C\c2ccc(O)c(OC)c2)C(=O)N1C | 11.5
46 | O=c1[nH]nc(-c2ccc(F)cc2)cc1Cc1cccs1 | -6.01
47 | CCC1(c2ccccc2)NC(=O)N(CC(=O)Nc2ccc(N3CCCC3)cc2C)C1=O (stereo not shown) | -7
48 | O=C(NC(=O)N1CCN(c2cccc(Cl)c2)CC1)c1ccccc1 | 6.99
49 | OC(COc1cc(Cl)c(Cl)cc1Cl)CN1CCN(c2ncccn2)CC1 (stereo not shown) | -11.3
50 | CCOC(=O)c1c(-c2ccccc2Cl)csc1NC(=O)CSc1nc(C)cc(=O)[nH]1 | 4.37
51 | Cc1ccc(/C=N/NC(=S)NC(C)C)o1 | 5.49
52 | Nc1nc(COc2ccccc2C=O)nc(Nc2ccccc2)n1 | -23.3
53 | CC(C)NC(=O)COc1coc(CN2CCN(c3cccc(Cl)c3)CC2)cc1=O | -16.1
54 | Cc1ccc(S(=O)(=O)N(C)c2ccccc2C(=O)Nc2ccc3c(c2)OCCO3)cc1 | -16.9
55 | CS(=O)(=O)Nc1ccc(Oc2ncccn2)cc1 | 14.4
56 | O=C(N=C1SC2CS(=O)(=O)CC2N1CCc1ccccc1)C1CCCCC1 (stereo not shown) | 1.42
57 | Br.C1=C(c2cccc3ccccc23)N2CCN=C2S1 | -34.5
58 | CCc1nc(OCC(=O)c2ccccc2)c(C#N)c2c1COC(C)(C)C2 | 10.8
59 | O=C1C=C(c2cc(F)ccc2F)C[C@@H](c2ccc(F)cc2)C1 | -4.05
60 | CCOc1ccc(Nc2ncnc3c2cnn3Cc2ccccc2)cc1 | -5.66
61 | CCOC(=O)N1CCN(C(=O)C2CCN(C(=O)c3ccc(C(C)(C)C)cc3)CC2)CC1 | -31
62 | N#Cc1cc([N+](=O)[O-])ccc1NC(=O)COC(=O)C12CC3CC(CC(C3)C1)C2 | -10.7
63 | O=C(O)/C=C/C(=O)NCc1ccccn1 | 30
64 | CCCNC(=O)N1CCN(C(c2ccccc2)c2ccccc2)CC1 | 8.23
65 | COC(=O)c1sccc1NC(=O)CN1CCN(c2ccc(F)cc2)CC1 | 6.89
66 | CCC1Sc2ccc(S(=O)(=O)CCC(=O)Nc3cc(C)ccn3)cc2NC1=O (stereo not shown) | 11.9

Row | Compound | hERG current change (%, negative = inhibition) at 10uM [%]
67 | O=C(Nc1ccccc1)c1nc[nH]c1C(=O)NCc1ccccc1 | 5.02
68 | COc1ccc(CN2CCc3ccc(NC(=O)CCc4ccccc4OC)cc3C2)c(O)c1 | -35.2
69 | O=C(NNc1ccccc1[N+](=O)[O-])Nc1ccc(F)cc1F | 10.9
70 | C=CCn1c(CCCOc2ccc(Cl)cc2Cl)nnc1SCC(=O)Nc1nccs1 | 3.79
71 | COc1ccc2oc(C(=O)OCC(=O)N3CC(C)CC(C)C3)c(C)c2c1 (stereo not shown) | -56.1
72 | CC(=O)N1CCc2cc(Br)cc(S(=O)(=O)N3CCN(c4ccccn4)CC3)c21 | 10.7
73 | NC(=O)CSc1cn(Cc2ccc(F)cc2)c2ccccc12 | 2.24
74 | CC12c3ccccc3C(c3ccccc31)C1C(=O)N(c3cccnc3)C(=O)C12 (stereo not shown) | -8.22
75 | N#Cc1cc(NC(=O)c2ccc(F)cc2)c(=O)n2c1[nH]c1ccccc12 | 15.1
76 | Cc1cccc(OCc2nc3ccccc3c(=O)n2N)c1 | 6.37
77 | COc1ccc(OC)c(C2CC(=O)Nc3c2c(=O)[nH]c2ncnn32)c1 (stereo not shown) | 1.66
78 | CCOC(=O)c1sc(NC(=O)CSc2nc(O)c(Cc3ccccc3)c(=O)[nH]2)nc1C | 14.6
79 | O=C(NNc1ccccn1)C(=O)NNS(=O)(=O)c1ccc(Cl)cc1 | 16.6
80 | CCn1c(-c2ccc(N(C)C)cc2)nc2ccccc21 | -50.3
81 | COc1cc2c(cc1OC)C(c1ccccc1[N+](=O)[O-])N(C(C)=O)CC2 (stereo not shown) | 19.2
82 | C=C(C)C(=O)Nc1cccc(C2=NOC3(C2)C[C@H](C(N)=O)N(C(=O)CC#N)C3)c1 (stereo partly shown) | 2.18
83 | CC(C(=O)N1CCCC1)N(c1ccccc1)S(C)(=O)=O (stereo not shown) | 25.1
84 | Nn1c(SCC(=O)Nc2cccc(C(F)(F)F)c2)nncc1=O | -11.8
85 | C/C=C/C1=CC(=O)C[C@H](c2ccc3c(c2)OCO3)C1 | -6.76
86 | CCOC(=O)C[C@H]1c2cc(F)ccc2S(=O)(=O)N1c1cccc(OC)c1 | 3.59
87 | O=Cc1ccc(OCCCOc2cccc3cccnc23)cc1 | -54.3
88 | CC(Oc1ccc(Br)cc1)C(=O)Nn1c(=S)[nH]c2ncccc2c1=O (stereo not shown) | -9.15
